Test results reported in patent US7566535B2, “Enhanced oligonucleotide-mediated nucleic acid sequence alteration” (University of Delaware, priority 2002, dated 2009).
Where two headings read alike, the source gives them in different places. In the oligonucleotide strings, read from the 5' end, every base follows the letter of its sugar. An asterisk marks phosphorothioate; unmarked linkages are phosphodiester. Other units and linkages are bracketed, terminal groups are in braces. A string of capitals states the bases alone. d = 2'-deoxy (DNA)

What was measured:
pAURHYG(Δ)eGFP = settings: for Average colony count on hygromycin plates / hygromycin-resistant colonies per aureobasidin-resistant colony: wild-type LSY678; for Fold Alteration in Correction Efficiency: 5 μg oligo
[1] = system: integrated pAUR101-HYG(rep)eGFP; settings: wild type
pAURHYG(x)eGFP = test: Hygromycin gene correction in yeast LSY678 with or without trichostatin A; settings: Cells pre-treated with 50 μg/mL trichostatin A; 5 μg oligo

B1: HygE3T/74: 74-base single-stranded DNA oligonucleotide, three phosphorothioate linkages at each end, SEQ ID NO: 8 (nucleic acid)
DNA: dC*dT*dC*dGdTdGdCdTdTdTdCdAdGdCdTdTdCdGdAdTdGdTdAdGdGdAdGdGdGdCdGdTdGdGdAdTdAdCdGdTdCdCdTdGdCdGdGdGdTdAdAdAdTdAdGdCdTdGdCdGdCdCdGdAdTdGdGdTdTdTdC*dT*dA*dC
In the case of B1, the “Average colony count on hygromycin plates” value (shortened to “Average colony count”) (pAURHYG(Δ)eGFP; 1.0 μg oligo) is reported as 1, the “hygromycin-resistant colonies per aureobasidin-resistant colony” value (pAURHYG(Δ)eGFP; 1.0 μg oligo) is reported as 0.01 and the “Average colony count” value (pAURHYG(Δ)eGFP; 2.5 μg oligo) is reported as 18. The “hygromycin-resistant colonies per aureobasidin-resistant colony” value (pAURHYG(Δ)eGFP; 2.5 μg oligo) was 0.11, the “Average colony count” value (pAURHYG(Δ)eGFP; 5.0 μg oligo) was 70 and the “hygromycin-resistant colonies per aureobasidin-resistant colony” value (pAURHYG(Δ)eGFP; 5.0 μg oligo) was 0.43. For the same molecule, the “Average colony count” value (pAURHYG(Δ)eGFP; 7.5 μg oligo) was 47, the “hygromycin-resistant colonies per aureobasidin-resistant colony” value (pAURHYG(Δ)eGFP; 7.5 μg oligo) was 0.29 and the “Average colony count” value (pAURHYG(Δ)eGFP; 10.0 μg oligo) was 11. For the same molecule, the “hygromycin-resistant colonies per aureobasidin-resistant colony” value (pAURHYG(Δ)eGFP; 10.0 μg oligo) was 0.07, the “Fold Alteration in Correction Efficiency” value (pAURHYG(Δ)eGFP; mre11 mutant) was 1.10x and the “Fold Alteration in Correction Efficiency” value (pAURHYG(Δ)eGFP; msh2 mutant) was 0x. For the same molecule, the “Fold Alteration in Correction Efficiency” value (pAURHYG(Δ)eGFP; msh3 mutant) was 0.02x, the “Fold Alteration in Correction Efficiency” value (pAURHYG(Δ)eGFP; msh6 mutant) was 0x and the “Fold Alteration in Correction Efficiency” value (pAURHYG(Δ)eGFP; rad1 mutant) was 0x. The “Fold Alteration in Correction Efficiency” value (pAURHYG(Δ)eGFP; rad10 mutant) was 0.04x, the “Fold Alteration in Correction Efficiency” value (pAURHYG(Δ)eGFP; rad51/52 mutant) was 0.13x and the “Fold Alteration in Correction Efficiency” value (pAURHYG(Δ)eGFP; rad51 mutant) was 0.47x. The “Fold Alteration in Correction Efficiency” value (pAURHYG(Δ)eGFP; rad52 mutant) was 0.05x, the “Fold Alteration in Correction Efficiency” value (pAURHYG(Δ)eGFP; wild type) was 1x and the “Average colony count” value ([1]; 2.5 μg oligo) was 652. The “Average colony count” value ([1]; 5.0 μg oligo) was 1,060, the “Average colony count” value ([1]; 7.5 μg oligo) was 2,052 and the “Average colony count” value ([1]; 10.0 μg oligo) was 2,012. For the same molecule, the Correction efficiency (pAURHYG(x)eGFP) was 3.3 1/10^5 and the “Hyg^r” value (pAURHYG(x)eGFP) was 278.
